In paper PMC4336329 (PLoS ONE, 2015):
Out of some 310,000 compounds screened, about 2,200 (0.71%) showed an effect of 50% or more. Effects have a minus sign here. The list shows a part of the results.

Target: human ether-à-go-go-related gene (hERG) potassium channel (human, UniProt Q12809)
Test: primary screen, population patch clamp on CHO cells stably expressing hERG
Protocol: Briefly, Chinese hamster ovary (CHO) cells stably expressing the hERG channel were dislodged from tissue culture flasks and dispensed into PPC plates. […] During the recording, background leak currents were estimated by a 100 ms step to -80 mV from an initial holding potential of -70 mV and subtracted from the subsequent current measurement. The campaign was conducted in two phases using slight differences in recording protocol. In the first phase, the initial voltage pulse used a 100 ms step to -30 mV from a holding potential of -70 mV, a 2 s conditioning step to +25 mV, and a 2 s test step to -30 mV. During the second phase of the screen, the potential during the conditioning step was raised to +45 mV. In both phases of the campaign, a secondary voltage pulse was applied using the same parameters as the second phase initial pulse. The initial and secondary pulses were applied in the absence of compound, and upon application of 1 μM and 10 μM test concentrations. Small molecule effects on hERG current density were quantified by […].

human ether-à-go-go-related gene (hERG) potassium channel, sequence (Q12809 whole entry, looked up): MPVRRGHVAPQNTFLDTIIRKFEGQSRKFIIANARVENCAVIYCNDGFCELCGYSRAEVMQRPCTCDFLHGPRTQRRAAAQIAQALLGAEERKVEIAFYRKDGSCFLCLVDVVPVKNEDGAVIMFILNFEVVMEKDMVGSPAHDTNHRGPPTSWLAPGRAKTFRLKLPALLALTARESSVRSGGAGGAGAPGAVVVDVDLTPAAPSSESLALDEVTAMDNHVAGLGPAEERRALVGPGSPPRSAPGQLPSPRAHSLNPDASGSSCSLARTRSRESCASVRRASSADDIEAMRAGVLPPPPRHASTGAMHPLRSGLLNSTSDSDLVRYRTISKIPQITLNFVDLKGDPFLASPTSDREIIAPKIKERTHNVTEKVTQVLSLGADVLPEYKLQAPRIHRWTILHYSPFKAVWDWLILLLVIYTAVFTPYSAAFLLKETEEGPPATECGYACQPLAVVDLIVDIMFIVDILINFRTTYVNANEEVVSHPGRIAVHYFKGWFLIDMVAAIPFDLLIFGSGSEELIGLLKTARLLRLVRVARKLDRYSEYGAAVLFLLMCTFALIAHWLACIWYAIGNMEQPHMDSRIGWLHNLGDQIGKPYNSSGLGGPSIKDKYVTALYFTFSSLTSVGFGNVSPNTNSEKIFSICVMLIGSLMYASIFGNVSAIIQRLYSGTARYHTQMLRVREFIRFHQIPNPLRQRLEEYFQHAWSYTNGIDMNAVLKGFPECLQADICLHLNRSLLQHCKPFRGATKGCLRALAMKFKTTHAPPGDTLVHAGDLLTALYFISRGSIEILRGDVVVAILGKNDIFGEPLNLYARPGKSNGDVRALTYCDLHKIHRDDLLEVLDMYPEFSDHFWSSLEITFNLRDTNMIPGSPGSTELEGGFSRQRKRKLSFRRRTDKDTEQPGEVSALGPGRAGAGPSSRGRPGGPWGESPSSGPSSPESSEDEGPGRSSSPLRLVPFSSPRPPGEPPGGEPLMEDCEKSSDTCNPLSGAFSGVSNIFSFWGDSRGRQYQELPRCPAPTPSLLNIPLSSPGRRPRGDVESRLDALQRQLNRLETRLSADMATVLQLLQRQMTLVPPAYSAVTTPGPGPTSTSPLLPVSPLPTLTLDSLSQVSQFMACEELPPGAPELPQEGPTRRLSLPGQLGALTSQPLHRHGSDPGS

Row | SMILES | hERG current change (%, negative = inhibition) at 1uM
1 | Cc1ccc(C(=O)O)cc1NC(=S)NC(=O)c1ccc(-c2ccccc2)cc1 | 14.8%
2 | COC(=O)/C(=N/Nc1ccccc1C)Sc1nnc(C(O)c2ccccc2)n1-c1ccccc1 (centres unmarked) | 11.3%
3 | C[C@H](NC(=O)c1nc[nH]c1C(=O)NCc1ccc(CNC(=O)OC(C)(C)C)cc1)C(=O)OC(C)(C)C | 11%
4 | CCOC(=O)COn1c(=O)c(-c2ccco2)[n+]([O-])c2ccccc21 | 3.36%
5 | Cc1cc(CNC(=O)COc2ccc(F)cc2Cl)cc(C)c1O | 10.7%
6 | COc1ccc(-c2c(C(F)(F)F)nn(C)c2NC(C)=O)cc1 | 4.59%
7 | CC(C)c1ccc(C(C(=O)NC2CCCC2)N(C(=O)c2csnn2)C2CC2)cc1 (centres unmarked) | 8.62%
8 | CCC(=O)c1ccc(OC(=O)/C=C/c2cc(OC)c(OC)c(OC)c2)cc1 | 12.4%
9 | O=[N+]([O-])c1ccc(N2CCN(S(=O)(=O)c3ccc(Cl)cc3)CC2)cc1NCC1CCCO1 (centres unmarked) | 2.52%
10 | COc1ccc(Cn2cccc(NC(=O)Nc3cccc(OC)c3)c2=O)cc1 | 8.91%
11 | O=C(Nc1ccccc1N1CCN(C(=O)c2ccccc2)CC1)c1cc2ccccc2o1 | 10.2%
12 | CC1CCCC(NC(=O)COC(=O)CCC2CCCC2)C1C (centres unmarked) | 1.62%
13 | COc1ccc(/C=C/C(=O)c2ccccc2)c(OC)c1 | 3.3%
14 | COCCCNc1nc(=S)[nH]c2cc(OC)c(OC)cc12 | 2.14%
15 | Cn1c(SCC(=O)CC(=O)Nc2ccccc2)nnc1-c1ccc(O)cc1 | 1.98%
16 | O=C(CCl)Nc1ccc(S(=O)(=O)Nc2nccs2)cc1 | 15.7%
17 | Cc1nc2ccccc2n1CC(O)c1ccccc1 (centres unmarked) | 14.5%
18 | CCOCCn1c(C(C)C)nc2ccccc21 | -3.06%
19 | COc1ccccc1OCC(=O)Nc1c2c(nn1-c1ccccc1)CS(=O)(=O)C2 | -4.85%
20 | COc1ccc(C)cc1C1=Nc2ccccc2C1(C)C | 13.4%
21 | Cc1ccc(-n2nc3c(=O)n(C(C)C(=O)NCCC4=CCCCC4)nc(C)c3c2C)cc1 (centres unmarked) | 4.35%
22 | O=C(CSc1nnc(-c2ccc(F)cc2)o1)NC1CCCCC1 | 13.2%

Row | SMILES | hERG current change (%, negative = inhibition) at 1uM
23 | CC(=O)N1N=C(c2ccc(C)c([N+](=O)[O-])c2)OC1(C)C | 11.2%
24 | O=c1c2c([nH]n1-c1ccccc1)CCSC2 | 18%
25 | O=C(NNC(=O)c1cccs1)c1ccc(S(=O)(=O)N2CCCCC2)cc1 | -2%
26 | CCN(CC)C(=O)c1sc2nc(-c3cccs3)cc(-c3ccc(Cl)cc3)c2c1N | 17.2%
27 | CC(=O)N1CCN(CC(=O)Nc2c(Cl)cc(Cl)cc2Cl)CC1 | -26.6%
28 | O=[N+]([O-])c1ccccc1-c1nc(-c2ccc(Br)o2)no1 | 14.4%
29 | O=[N+]([O-])c1cccc(S(=O)(=O)[N-]c2nc3ccccc3nc2-n2cc[n+](Cc3ccccc3)c2)c1 | 2.29%
30 | O=C(Cn1nnc(-c2cccs2)n1)NCc1ccco1 | 13.2%
31 | O=C(Nc1cc(-c2nc3ncccc3o2)ccc1Cl)c1ccc2c(c1)OCO2 | 12.7%
32 | CC(=O)N1CCN(Cc2nc3cc(NC(=O)c4cccs4)ccc3n2C)CC1 | 12%
33 | Cc1ccc(C)n1-c1ccc(N2CCOCC2)c([N+](=O)[O-])c1 | 12.8%
34 | COc1ccc(N(CC(=O)NCc2ccccc2OC)S(=O)(=O)c2ccccc2)cc1 | 13%
35 | COC(CNc1ncnc2c1cnn2C)OC | 13.4%
36 | C#CCSc1nnc(-c2cccc3ccccc23)o1 | 5.47%
37 | C/C(CC(=O)Nc1ccc(Cl)cc1)=N\NC(=O)C(=O)NCCO | 10.7%
38 | CN(C)C(CNC(=O)c1cccc(C#N)c1)c1ccco1 (centres unmarked) | -0.423%
39 | COc1ccc(OC)c(NC(=O)CNC(=O)Cn2ccc3ccccc3c2=O)c1 | 15.5%
40 | O=C(CN1C(=O)/C(=C\c2ccccc2Cl)Sc2ccccc21)NCCCN1CCOCC1 | 8.24%
41 | CCCNC1CCS(=O)(=O)C1.Cl (centres unmarked) | 5.66%
42 | COC(=O)COc1ccc(C)cc1-n1nc2ccccc2n1 | 5.84%
43 | CC(C)c1ccccc1NC(=O)C1CC(=O)N(C2CCCC2)C1 (centres unmarked) | 12.9%
44 | CCC1(CC)NC(=O)N(CC(=O)OCC(=O)NC(=O)c2ccccc2OC)C1=O | 14.7%
